In the RNAGym collection of RNA variant scans (doi:10.7554/elife.90254):
The source gives no read counts; variants with many changes may rest on few reads.

B1: LINE1-mini (parent)
chain: GGCAGAGCUCAACACAGCGUGGCAAAGUGGCUGUGGCUAGACUGCC

Variants of: B1
Assay: self-cleavage, relative activity (ratio to wild type); higher = more cleavage; in vitro, sequencing; the parent is a self-cleaving ribozyme

Variant | self-cleavage
G1A C18U G19A C23A C45G | 0.43
G1A A26U C31G C46A | 0.15
G1A C10A C31A | 0.04
G1A C8U C10A G44A | 0.07
G1A C3A U9G U34G G36A C45A | 0.12
G1A C18U C31U G36C | 0.08
G1A A26C G35A | 0.17
G1A C3A G19A A39C | 0.17
G1A C13U A16U G40C | 0.08
G1A C10U A25C G27A | 0.34
G1A C10A U20C A41U | 0.02
G1A C15U C31U | 0.06
G1A C10A A24U G36U | 0.04
G1A C15U G19U A25U G33A U43C | 0.26
G1A C3U A11C G33A | 0.07
G1A C15A A24C | 0.04
G1A C8G A14U A26C C37U | 0.09
G1A C3A A11G A25C C46U | 0.07
G1A C13U G27U A41G | 0.11
G1A C13G G22U G29A | 0.44
G1A C13G U43G | 0.04
G1A C8A C31G C46U | 1.11
G1A A16G G40C | 0.04
G1A C8U C23U G35U G40C | 0.13

Variant | self-cleavage
G1A C3U G7A C31U | 1.2
G1A C3G A6G A12G U20G G44C C45U | 0.01
G1A A16G C23U G33A | 0.03
G1A A25U A26U C45U | 0.69
G1A A24U A25U C31A | 0.1
G1A C15A G17U C23A | 0.06
G1A C8U A24G | 1.34
G1A C18A G19A A25C G44C | 0.03
G1A C3G G36C A41U C42U G44U | 0.17
G1A C15A A24C C45A | 0.03
G1A A25C U34C C42A | 0.07
G1A C8G G36C G40U | 0.18
G1A C8G G17C | 0.03
G1A A25C G33C C37U | 0.04
G1A C23U C31G G33U | 0.01
G1A C31A C42U G44U | 0.04
G1A C10U G19U | 0.27
G1A A25G U34A | 0.08
G1A C13G G44U | 0.04
G1A C3U C8A A16U G19C C46U | 1.63
G1A C18G U32C | 0.04
G1A C18G C42G | 0.08
G1A C8U A24U U28G | 1.06
G1A C15U G33A C45U | 0.16

Variant | self-cleavage
G1A C8A G36C G44C | 0.26
G1A C3U U28G | 0.47
G1A C18A C31U G40A | 0.02
G1A C15G C18A U28C G30C C37A U38G | 0
G1A C15G G30A G33C G35U | 0.04
G1A C8A G27U A41C | 0.07
G1A C10A A12U C13A G27C C42G | 0.02
G1A A26U G36A | 0.17
G1A C10A G35A | 0.05
G1A C13A G36A C46G | 0.63
G1A C8U A12U A25G G27U | 0.08
G1A C15U U20C | 0.9
G1A C15A G27C G36U | 0.02
G1A C10A A12C | 0.04
G1A A24U G27U G44C | 1.6
G1A C3U G27U U43A | 0.69
G1A C8U C31G | 0.58
G1A A26G G33U | 0.26
G1A C3G G35C G40U | 0.16
G1A C13G G30C U32C G44C | 0.02
G1A C15G G21C C42U | 0.03
G1A C10U C23U G44C | 0.27
G1A C8G G36U A41G | 0.12
G1A C8G A41C | 0.24

Variant | self-cleavage
G1A C18A C23G A39U | 2.47
G1A C13G A39C | 0.06
G1A C18G G19A U20C G29A C45A | 0
G1A C3G G27A | 0.47
G1A C3G G7C A11G G22U G27A | 0.14
G1A C15A G36U | 0.07
G1A C8A C13G C18A G22A A25U G29C | 0.96
G1A C13G U28G C31U | 0.07
G1A A24U G35C C45A | 0.02
G1A C23U C37A | 0.08
G1A A25U U28G C42G | 0.01
G1A C8U G17A C31A | 0.4
G1A C23G U38A | 0.25
G1A C10G A11C G35U A41C | 0.01
G1A C23G A25G U28G C31G G33C U34C | 0.07
G1A A16U C18A A26G G35A C46A | 0.03
G1A C13U C31G | 0.05
G1A C3A G22A U38A | 0.98
G1A A24G G30U | 1.51
G1A A16G C46A | 0.15
G1A C3G G21U G30U G33U | 0.82
G1A C10A C18A G29A | 0.31
G1A C18A G30A | 0.25
G1A C3A C8A C13A C42A | 1.18

Variant | self-cleavage
G1A A26C A41G | 0.08
G1A C10U A41G | 0
G1A C8U A16C | 0.3
G1A C8U A16G | 0.14
G1A C8A U9G | 0.11
G1A C13A A16U U20A C23A C31A | 0.04
G1A C8U C23G C46A | 0.96
G1A C15U G17U | 0.08
G1A C15G G17U | 0.06
G1A A24C A25G | 0.1
G1A C10G A12C | 0.05
G1A C3G G21U | 0.49
G1A C15U A39C C46A | 0.09
G1A C8G G44A | 0.02
G1A C8A C13G A14G U28G G33C | 0.05
G1A C3G G19U U20G G22U | 0.3
G1A C10U C18A G27C C31G | 0.07
G1A C3A G21U G30C | 0.9
G1A C23U A26G U28C U32C A39C | 0.04
G1A C8U A16G A25G A26U U43A G44A | 0.2
G1A C18A G35A G36A G44U | 0.04
G1A C8G A16U G27A G36U A39C C45A | 0.1
G1A C18G G35C C46A | 0.03
G1A C3A G5U G7U U9G C31A G33A | 1.75

Variant | self-cleavage
G1A C23U C31A | 0.18
G1A C8G U9G A16C C37A A41U | 0.3
G1A C10U C18U G36C G40A | 0.09
G1A C10A A12G G17A G21C A41U | 0.04
G1A C10G U20A C23G G36C | 0.01
G1A C13A A25G | 0.06
G1A C10A U20G C31U | 0.06
G1A C18G A39U G40A | 0.01
G1A C8A C10U G44A C46A | 0.04
G1A C3A U38G A41G | 0.68
G1A C15G G17C A41U C42G | 0.03
G1A C8A A12U G22C C23U U38C A41U C42A | 1.26
G1A A16G G22U C23U G35U | 0.01
G1A C8U A12G G17A C45A | 0.6
G1A A25U G36C U38G | 0.04
G1A C10A A14U G29C G30A | 0.01
G1A C23A G30U G35A U38G | 0.03
G1A C10U A12C C18U G36U C46A | 0.04
G1A C3A C15G G27U | 0.22
G1A C3G U34C G35C | 0.17
G1A C3U A14G G36C G44C | 0.32
G1A C10A C23G U38A | 0.07
G1A C10U G21A G33U | 0.06
G1A A16U A25C G29A C42A | 0.04

Variant | self-cleavage
G1A C8A G29U | 1.16
G1A C3U C8U | 0.07
G1A C8A U28A G36A U38A G44A | 0.42
G1A C3U U20C A25G U28A G40C C42G | 0.39
G1A C8U A25G G33U | 0.05
G1A C3A U20G A39G C42G | 1.07
G1A C10A G19A A39U | 1.22
G1A C3G C15G G19A G21A | 0.09
G1A C10A G27A C37U A41C | 0.02
G1A C13G U20G G22U A25C | 0.13
G1A A24C G30U U38G | 0.02
G1A C13G A14U A39G A41C | 0.03
G1A C18U A24C | 0.62
G1A C3A A14U | 1.62
G1A C8U A12G C42G | 0.59
G1A C8G A12C G22C | 0.02
G1A C8G C18U C23A G29C | 0.03
G1A A16U A25C G35U | 0.2
G1A C18A A25U C37A | 0.13
G1A C3G G44U | 0.24
G1A C23A C37U | 0.03
G1A C3U A11G C23A C37A C45A | 0.02
G1A C3A A39U | 2.67
